Data: the supplement of paper PMC8728848
Some of the results follow.

Experiments:
Assay in all cases: glycan array binding signal (z-score within array); higher = stronger binding
Conditions in all cases: glycan notation: IUPAC condensed, linker removed
Gal(a1-6)Glc = molecular target: Gal(a1-6)Glc
Summary of the method: (§1)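 The binding signal is a Z-score computed within each array. Data were drawn from 3228 arrays in the Consortium for Functional Glycomics database, restricted to those with a known protein sequence. Scores were averaged over arrays of the same protein sequence at different concentrations or buffers, and over linkers, and negative values can be taken as non-binding.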

Gal(b1-2)Gal = molecular target: Gal(b1-2)Gal
Summary of the method: as §1

Gal(b1-3)Gal = molecular target: Gal(b1-3)Gal
Summary of the method: as §1

Gal(b1-3)GalNAc = molecular target: Gal(b1-3)GalNAc
Summary of the method: as §1

[1] = molecular target: Gal(b1-3)GalNAc(b1-4)Gal(b1-4)Glc
Summary of the method: as §1

[2] = molecular target: Gal(b1-3)GalNAc(b1-4)[Neu5Ac(a2-3)]Gal(b1-4)Glc
Summary of the method: as §1

Gal(b1-3)GlcNAc = molecular target: Gal(b1-3)GlcNAc
Summary of the method: as §1

[3] = molecular target: Gal(b1-3)GlcNAc(b1-3)Gal(b1-4)Glc
Summary of the method: as §1

[4] = molecular target: Gal(b1-3)[Fuc(a1-4)]GlcNAc
Summary of the method: as §1

[5] = molecular target: Gal(b1-3)[GlcNAc(b1-6)]GalNAc
Summary of the method: as §1

[6] = molecular target: Gal(b1-3)[Neu5Ac(a2-6)]GalNAc
Summary of the method: as §1

[7] = molecular target: Gal(b1-3)[Neu5Ac(a2-6)]GlcNAc(b1-4)Gal(b1-4)Glc
Summary of the method: as §1

[8] = molecular target: Gal(b1-3)[Neu5Ac(b2-6)]GalNAc
Summary of the method: as §1

[9] = molecular target: Gal(b1-4)GalNAc(a1-3)[Fuc(a1-2)]Gal(b1-4)GlcNAc
Summary of the method: as §1

Gal(b1-4)Glc = molecular target: Gal(b1-4)Glc
Summary of the method: as §1

Gal(b1-4)Glc6S = molecular target: Gal(b1-4)Glc6S
Summary of the method: as §1

Gal(b1-4)GlcNAc = molecular target: Gal(b1-4)GlcNAc
Summary of the method: as §1

[10] = molecular target: Gal(b1-4)GlcNAc(b1-3)Gal(b1-4)Glc
Summary of the method: as §1

[11] = molecular target: Gal(b1-4)GlcNAc(b1-3)Gal(b1-4)GlcNAc
Summary of the method: as §1

[12] = molecular target: Gal(b1-4)GlcNAc(b1-3)Gal(b1-4)GlcNAc(b1-3)Gal(b1-4)GlcNAc
Summary of the method: as §1

[13] = molecular target: Gal(b1-4)GlcNAc(b1-3)Gal(b1-4)[Fuc(a1-3)]GlcNAc(b1-3)Gal(b1-4)[Fuc(a1-3)]GlcNAc
Summary of the method: as §1

[14] = molecular target: Gal(b1-4)GlcNAc(b1-3)GalNAc
Summary of the method: as §1

[15] = molecular target: Gal(b1-4)GlcNAc(b1-3)[Gal(b1-4)GlcNAc(b1-6)]GalNAc
Summary of the method: as §1

[16] = molecular target: Gal(b1-4)GlcNAc(b1-6)GalNAc
Summary of the method: as §1

[17] = molecular target: Gal(b1-4)GlcNAc(b1-6)[Gal(b1-3)]GalNAc
Summary of the method: as §1

Gal3S(b1-3)GalNAc = molecular target: Gal3S(b1-3)GalNAc
Summary of the method: as §1

Gal3S(b1-3)GlcNAc = molecular target: Gal3S(b1-3)GlcNAc
Summary of the method: as §1

[18] = molecular target: Gal3S(b1-3)[Fuc(a1-4)]GlcNAc
Summary of the method: as §1

Gal3S(b1-4)Glc = molecular target: Gal3S(b1-4)Glc
Summary of the method: as §1

Gal3S(b1-4)Glc6S = molecular target: Gal3S(b1-4)Glc6S
Summary of the method: as §1

Gal3S(b1-4)GlcNAc = molecular target: Gal3S(b1-4)GlcNAc
Summary of the method: as §1

Gal4S(b1-4)GlcNAc = molecular target: Gal4S(b1-4)GlcNAc
Summary of the method: as §1

Gal6S(b1-4)Glc = molecular target: Gal6S(b1-4)Glc
Summary of the method: as §1

Gal6S(b1-4)Glc6S = molecular target: Gal6S(b1-4)Glc6S
Summary of the method: as §1

GalNAc(a1-3)Gal = molecular target: GalNAc(a1-3)Gal
Summary of the method: as §1

GalNAc(a1-3)GalNAc = molecular target: GalNAc(a1-3)GalNAc
Summary of the method: as §1

B1: CGL3 (Coprinopsis cinerea) (protein)
chain: MGHHHHHHHHSGFHILRLESTVDLSEPLKDNGIIVFQSDKLDLEPSPNLGPTGIDNTNVNLINAKGDVLLHIGIRRRENAFVFNSIPYGESRGPEERIPLEGTFGDRRDPSITVFDHPDRYQIMIDYKTVYYYKKRLEGRCEKVSYKINEGQTPPFSDVLGVTVLYFANVMPRAN
glycan array binding signal (z-score) (Gal(a1-6)Glc): -0.147 | glycan array binding signal (z-score) (Gal(b1-2)Gal): -0.169 | glycan array binding signal (z-score) (Gal(b1-3)Gal): -0.151 | glycan array binding signal (z-score) (Gal(b1-3)GalNAc): -0.16 | glycan array binding signal (z-score) [1]: -0.1 | glycan array binding signal (z-score) [2]: -0.23 | glycan array binding signal (z-score) (Gal(b1-3)GlcNAc): -0.179 | glycan array binding signal (z-score) [3]: 2.51 | glycan array binding signal (z-score) [4]: -0.173 | glycan array binding signal (z-score) [5]: -0.181 | glycan array binding signal (z-score) [6]: -0.206 | glycan array binding signal (z-score) [7]: -0.124 | glycan array binding signal (z-score) [8]: -0.191 | glycan array binding signal (z-score) [9]: -0.214 | glycan array binding signal (z-score) (Gal(b1-4)Glc): -0.06 | glycan array binding signal (z-score) (Gal(b1-4)Glc6S): -0.131 | glycan array binding signal (z-score) (Gal(b1-4)GlcNAc): -0.194 | glycan array binding signal (z-score) [10]: 1.43 | glycan array binding signal (z-score) [11]: -0.214 | glycan array binding signal (z-score) [12]: -0.21 | glycan array binding signal (z-score) [13]: -0.188 | glycan array binding signal (z-score) [14]: -0.201 | glycan array binding signal (z-score) [15]: -0.202 | glycan array binding signal (z-score) [16]: -0.182 | glycan array binding signal (z-score) [17]: -0.193 | glycan array binding signal (z-score) (Gal3S(b1-3)GalNAc): -0.186 | glycan array binding signal (z-score) (Gal3S(b1-3)GlcNAc): -0.18 | glycan array binding signal (z-score) [18]: -0.178 | glycan array binding signal (z-score) (Gal3S(b1-4)Glc): 0.022 | glycan array binding signal (z-score) (Gal3S(b1-4)Glc6S): 0.238 | glycan array binding signal (z-score) (Gal3S(b1-4)GlcNAc): 0.665 | glycan array binding signal (z-score) (Gal4S(b1-4)GlcNAc): -0.214 | glycan array binding signal (z-score) (Gal6S(b1-4)Glc): -0.163 | glycan array binding signal (z-score) (Gal6S(b1-4)Glc6S): -0.16 | glycan array binding signal (z-score) (GalNAc(a1-3)Gal): -0.191 | glycan array binding signal (z-score) (GalNAc(a1-3)GalNAc): -0.202
